Data reported in PubChem BioAssay AID686971 (National Center for Advancing Translational Sciences (NCATS), 2013).
Among all 360,000 compounds or so, about 7,500 (2.1%) were called active. This list was built around the results that the source calls inconclusive (neither active nor inactive); the mix of calls is not that of the screen. Calls come from the whole dose curve; as a rule, active = well fitted cell-killing curve with a large enough effect; inconclusive = small, poorly fitted or top-dose-only effect, or effect the other way, or another doubt; inactive = no such curve, though single readings can be large or run the other way. No potency is given beside an inconclusive call; the fits are too rough.

Assay: qHTS for induction of synthetic lethality in tumor cells producing 2HG: qHTS for the HT-1080-IDH1KD cell line;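 for activity, negative = toxicity: 0% = DMSO wells and -100% = cell-free medium wells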
Conditions: HT-1080 IDH1 knockdown viability, ATP luminescence, 48 h; activity, negative = toxicity: at 46.1 µM (top of the series) unless noted
Method in brief: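 Assay cells: HT-1080 with IDH1 knockdown, 750 per well, RPMI/5% FBS. Exposure: 48 h at 37 °C following 2 h pre-incubation. Read: CellTiter-Glo luminescence; fitted concentration-response, curve class assigned.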
Potency is the fitted concentration of half-maximal effect; tags give direction and shape of the fitted curve.

Row | SMILES | Potency | activity, negative = toxicity
1 | CCc1ccc(NC(=O)CCS(=O)(=O)c2ccc(Cl)cc2)cc1 | inactive | –
2 | CC(=O)c1c(C)[nH]c(C(=O)OCC(=O)NCCc2ccc(Cl)cc2)c1C | inconclusive [cytotoxic, single point] | –
3 | O=C(/C=C/Nc1ccc(F)cc1Br)c1ccccc1 | inconclusive [cytotoxic, partial curve] | –
4 | CCC(=O)Nc1ccc(C(=O)OCc2ccc(Cl)c(Cl)c2)cc1 | inactive | –
5 | COc1cccc(/C=N/NC(=O)c2cc3c(OC)ccc(OC)c3[nH]2)c1O | active: 25.9 µM | –
6 | O=C(NC(c1ccc(F)cc1)c1ccc2ccccc2n1)C1CCN(CCOc2ccc(Cl)cc2Cl)CC1 (stereo unspecified) | active: 11.6 µM | –
7 | CN1OC[C@@H]2CN(C(=O)CCc3ccccc3)[C@H](c3ccccc3Br)C[C@@H]21 | inactive | –
8 | CN(C)N1C(=O)C2C3C=CC(O3)C2C1=O (stereo unspecified) | inactive | –
9 | CSC(=NC1CCCCC1)NS(=O)(=O)c1ccccc1 | – | inconclusive: -11.6% [cytotoxic]
10 | COc1ccc(NC(=O)c2cc(-c3ccccc3OC)on2)cc1 | active: 6.31 µM | –
11 | CCCCN(C(=O)c1cccc2c(=O)c(C)c(-c3ccccc3)oc12)c1ccccc1 | inconclusive [cytotoxic, single point] | –
12 | Cc1ccc(NC(=O)CSc2ccccc2NC(=O)c2ccccc2Cl)cc1Cl | inactive | –
13 | CCN1/C(=C/c2ccc3cc(C)ccc3[n+]2CC)Sc2cc(C)c(C)cc21 | active: 11.6 µM | –
14 | CCCCOc1ccc(C(=O)NNC(=O)C2C3C=CC(C3)C2C(=O)O)cc1 (stereo unspecified) | inactive | –
15 | NC1=NC(=O)C2(COC(c3ccncc3)OC2)S1 (stereo unspecified) | – | inconclusive: -2.4% [cytotoxic]
16 | Cc1ccc2ccccc2c1CSc1nc(N)nc2c1ncn2CC(C)C | inconclusive [cytotoxic, partial curve] | –
17 | CC(C)=C1C2CCC1C1C(=O)N(NC(=O)COc3ccc(Cl)c(C)c3)C(=O)C21 (stereo unspecified) | inactive | –
18 | CCOC(=O)/C=C1\SCC(=O)N1CC(=O)Nc1ccc2c(c1)CCC2 | inconclusive [cytotoxic, partial curve] | –
19 | Cc1noc(/C=C/N(C)C)c1S(=O)(=O)N1CCCC(C(=O)NCc2ccc(Cl)cc2)C1 (stereo unspecified) | inconclusive [cytotoxic, single point] | –
20 | O=C(COc1ccc(S(=O)(=O)NC2CCCCC2)cc1)N1CCN(c2cccc(Cl)c2)CC1 | inconclusive [cytotoxic, single point] | –
21 | CCOC(=O)C1C(C)=CC(=O)CC1c1ccco1 (stereo unspecified) | inactive | –
22 | CC(=O)N(C)c1ccc(NC(=O)Cc2cccc3ccccc23)cc1 | inactive | –
23 | Cc1ccc(C(c2nnnn2CCc2ccccc2)N2CCC(C)CC2)cc1 (stereo unspecified) | inconclusive [cytotoxic, single point] | –
24 | CC(C)C(=O)N1CCN(c2ccc(NC(=O)c3ccc([N+](=O)[O-])o3)cc2Cl)CC1 | inconclusive [cytotoxic, full curve] | –
25 | Cc1cccnc1C(NC(=O)C1CCN(Cc2ccc(Cl)cc2)CC1)c1ccc(F)cc1 (stereo unspecified) | inconclusive [cytotoxic, single point] | –
26 | Cc1cc(C)cc(N=Cc2[nH]c3ccc(Br)c(Cl)c3c2O)c1 | inconclusive [cytotoxic, single point] | –

Row | SMILES | Potency | activity, negative = toxicity
27 | Cc1cc(SCC(=O)Nc2cccc(S(=O)(=O)NC3=NCCCCC3)c2)c(C)cc1Br | active: 13 µM | –
28 | N#Cc1c(-c2cccc(Br)c2)cc(-c2cccnc2)nc1N | inconclusive [cytotoxic, single point] | –
29 | Cc1nc(N)sc1-c1csc(Nc2ncccn2)n1 | active: 20.6 µM | –
30 | COc1cc2[nH]c(=O)n(CCC(=O)N3CCN(c4cc(Cl)ccc4C)CC3)c(=O)c2cc1OC | inconclusive [cytotoxic, single point] | –
31 | CCCCn1c(=O)[nH]c(=O)c2c1ncn2Cc1ccco1 | inactive | –
32 | O=C(NCCCCCCNC(=O)OC1CCS(=O)(=O)C1)OC1CCS(=O)(=O)C1 (stereo unspecified) | inactive | –
33 | CC(/C=C/c1ccc(O)cc1)=NNc1ccccc1 | inconclusive [cytotoxic, partial curve] | –
34 | Cc1nc2ccccc2c(=O)n1NC(=O)c1c(O)c2c(n(CC(C)C)c1=O)CCCC2 | inconclusive [cytotoxic, single point] | –
35 | CSc1ccccc1C(=O)NCC(c1ccco1)N1CCCCC1 (stereo unspecified) | inconclusive [rising, partial curve] | –
36 | Cc1ccc(C(=O)N2CCCC(c3ccc(Cl)cc3)=N2)cc1 | inconclusive [cytotoxic, single point] | –
37 | CN1CCN(C2Cc3ccc(Cl)cc3Sc3ccc(F)cc32)CC1 (stereo unspecified) | active: 13 µM | –
38 | Cc1ccccc1OCc1ccc(C(=O)N2CC(C)OC(C)C2)o1 (stereo unspecified) | inconclusive [cytotoxic, partial curve] | –
39 | CCN(CC)CCNC(=O)c1ccc(NC(C)=O)cc1 | inactive | –
40 | Cc1ccc(C)c(OCC(=O)N(Cc2ccccc2)c2c(N)n(Cc3ccccc3)c(=O)[nH]c2=O)c1 | inactive | –
41 | CCc1nc2ccc(C(=O)NCCN(C)C)cn2c1N(CC)CCOC | inconclusive [rising, single point] | –
42 | Cc1csc(NC(=O)CSc2nnc(-c3cccs3)n2C)n1 | inconclusive [rising, single point] | –
43 | CC(=O)c1c(-c2ccccc2)[nH]c2ccccc12 | inconclusive [cytotoxic, single point] | –
44 | Cc1ccc(SCC2(O)CCN(S(=O)(=O)c3ccc(Cl)cc3)CC2)cc1 | inactive | –
45 | CCCCCCCNC(=O)C1(CC2CC(c3cccc(Br)c3)=NO2)CCNCC1 (stereo unspecified) | inconclusive [cytotoxic, single point] | –
46 | CCC1=C(CC2NCCc3ccccc32)CC2c3cc(OC)c(OC)cc3CCN2C1 (stereo unspecified) | active: 6.51 µM | –
47 | O=[N+]([O-])c1ccc(/C=C/c2ccc3cccc([N+](=O)[O-])c3n2)cc1 | inconclusive [cytotoxic, single point] | –
48 | O=C1[C@H](Oc2ccccc2)[C@@H](c2ccncc2)N1c1ccncc1 | inactive | –
49 | CCOC(=O)c1c(NC(=O)CSc2c[nH]c3ccccc23)sc2c1CCC2 | inconclusive [cytotoxic, single point] | –
50 | CC(=O)c1cccc(NC(=O)/C=C/c2ccc([N+](=O)[O-])s2)c1 | inconclusive [cytotoxic, full curve] | –
51 | c1ccc(CNCCCNCCCCNCCCNCc2ccccc2)cc1 | active: 5.17 µM | –
52 | CCOc1ccccc1NC(=S)NC1CCCCC1 | inconclusive [rising, partial curve] | –

Row | SMILES | Potency | activity, negative = toxicity
53 | Cc1ccc(S(=O)(=O)Cc2ccc(C(=O)N3CCN(c4cccc(C)c4C)CC3)o2)cc1 | active: 3.66 µM | –
54 | CCOC(=O)c1[nH]c2ccccc2c1NC(=O)c1ccc2c(c1)OCO2 | inactive | –
55 | COc1ccc(-n2nc(C(N)=O)nc2-c2ccccc2)cc1 | inactive | –
56 | O=C(CNC(=O)c1ccccc1)OCN1C(=O)c2ccccc2C1=O | inactive | –
57 | CC[C@H](C)[C@@H]1NC(=O)[C@@H](CC(C)C)NC(=O)[C@H](C(C)C)NC(=O)[C@H]2CSSC[C@H](NC1=O)C(=O)N2 | active: 0.517 µM | –
58 | O=C(CNc1cccc2ccccc12)N/N=C/c1cccc(Oc2ccccc2)c1 | inconclusive [cytotoxic, single point] | –
59 | CC(C)CCC(O)(c1ccccc1)C(CN1CCOCC1)c1ccccc1 (stereo unspecified) | inconclusive [cytotoxic, single point] | –
60 | CCCCCC(=O)N1C[C@@H](O)[C@H](n2cc(-c3ccc(F)cc3)nn2)C[C@@H]1c1ccc(Cl)cc1 | inconclusive [cytotoxic, single point] | –
61 | O=C(c1ccccc1)c1cccc(NC(=O)c2ccc(Br)o2)c1 | inactive | –
62 | COc1ccc(OC)c(N2C(=O)CC(NNC(=O)c3ccc4c(c3)OCO4)C2=O)c1 (stereo unspecified) | inactive | –
63 | COc1cc(C(C)=O)ccc1OCCN1CCC(Cc2ccccc2)CC1 | inconclusive [cytotoxic, partial curve] | –
64 | COc1ccc(/C=N/NC(=O)c2cccnc2)cc1CSc1ccccn1 | active: 11.6 µM | –
65 | CC1CN(CCC(=O)Nc2ccccc2F)CC(C)O1 (stereo unspecified) | inactive | –
66 | CCCOc1ccccc1C1CC(=O)Nc2cc3c(cc21)OCO3 (stereo unspecified) | active: 1.84 µM | –
67 | COc1cccc(-c2sc3ccc(OC)cc3c2-c2ccc(OCCN3CCOCC3)cc2)c1 | inconclusive [cytotoxic, single point] | –
68 | CCc1nc2ccc(C(=O)Nc3ccc(OC)c(OC)c3)cn2c1N(CC)Cc1cccc(Br)c1 | active: 16.4 µM | –
69 | CCN1C(=NCCOC)N[C@@H](c2cccc(F)c2)C(C(=O)OC)=C1C | inactive | –
70 | COc1ccc(NC(=O)c2cc3c(-c4ccc(OC)c(OC)c4)nn(C)c3s2)cc1OC | inconclusive [cytotoxic, single point] | –
71 | C=CCn1c(CCNC(=O)c2ccc(Cl)c(Cl)c2)nnc1SCCOc1ccc(OC)cc1 | inconclusive [cytotoxic, single point] | –
72 | CC1CCCN(C(=O)CSCC(=O)N=c2sc3ccccc3n2C)C1 (stereo unspecified) | inactive | –
73 | Oc1ccc(/C=N/Nc2ccnc3cc(Cl)ccc23)cc1O | inconclusive [cytotoxic, single point] | –
74 | CCOc1ccc(/C=N/OCC(=O)NCc2ccc3c(c2)OCO3)cc1OC | inactive | –
75 | Cc1cc(C)n2cc(CSc3nnnn3-c3ccccc3)nc2n1 | inactive | –
76 | COc1cccc(-c2cnc3c(NC=O)cc(-c4cc(OC)c(OC)c(OC)c4)cn23)c1 | active: 16.4 µM | –
